# Measurements from PubChem BioAssay AID651582 (Sanford-Burnham Center for Chemical Genomics, 2012).
# The list shows a part of the results. Further columns of the screen follow, without active or inactive calls. Most of these compounds were active or inconclusive in the main read-out, so they are no random draw.
# Assay: inhibitors of triacylglycerol accumulation, primary screen, cell-based, uHTS, fluorescence, H9c2 (AID 651582)
# Conditions: H9c2 cells, Nile Red lipid (TAG) fluorescence; measured here:; at 12.5 µM; cells loaded with 200 µM oleic acid
row,SMILES,"DAPI nuclei signal change (viability), lower = more cytotoxic"
1,C[C@H](CO)N1C[C@H](C)[C@H](CN(C)S(=O)(=O)c2ccc(Cl)cc2)OCc2ccccc2-c2c(n(C)c3ccccc23)C1=O,-1.12%
2,COc1ccccc1C=NN=C(NN=Cc1ccccc1OC)NN=Cc1ccccc1OC,-24.1%
3,CCOC(=O)C1CCN(C(=O)C2(NC(=O)Nc3ccccc3Cl)CCCCC2)CC1,3.87%
4,CCc1cc2c3c(c1)C1(C(=O)N3C(C)(C)C=C2C)C(C#N)=C(N)Oc2[nH]c(=O)[nH]c(=O)c21 (centres undefined),-31.3%
5,O=C(CCl)Nc1cc2[nH]c(=O)[nH]c2cc1Br,-30%
6,COc1ccccc1C(C[N+](=O)[O-])c1c(N)n(C)c(=O)n(C)c1=O (centres undefined),-38.5%
7,Cc1ccc(NC(=O)CSc2nnnn2-c2ccc3c(c2)OCO3)cc1C,-15%
8,CCOC(=O)c1c(CSC(=N)N)n(-c2ccccc2)c2cc(Br)c(OC(C)=O)cc12,-27.6%
9,O=C(C[C@H]1C[C@H](C(=O)N2CCOCC2)[C@@]2(CCC3CCCC3)c3[nH]c4cc(-c5ccco5)ccc4c3CCN2C1=O)NCC12CC3CC(CC(C3)C1)C2,18.1%
10,COc1cc2c(cc1[N+](=O)[O-])-c1ccc([N+](=O)[O-])cc1C2=NNC(N)=S,-18.5%
11,O=C(OCc1ccc(Br)cc1)c1cc([N+](=O)[O-])ccc1N1CCOCC1,-35.9%
12,CCCCCOc1ccc(Br)cc1/C(C)=N/NC1=NCCN1,-6.78%
13,COc1ccc2c(c1)c(CC(=O)Nc1ccc(C)cc1)c(C)n2C(=O)c1ccc(Cl)cc1,-10.7%
14,CC1(C)CC(=O)C=C(C#CC2(O)CCCCC2)C1,-34.6%
15,CC(C)(C)NC(=O)C[C@H]1C[C@H](C(=O)N2CCCCC2)[C@@]2(CCc3ccccc3)c3[nH]c4ccc(Cl)cc4c3CCN2C1=O,-1.44%
16,Oc1ccc(C=NNc2ccccn2)c(O)c1,-22.6%
17,CCN1C(=O)[C@H]2[C@@H](c3ccc(-c4ccccc4)c(OC)c3)N[C@@](CC(C)C)(C(=O)OC)[C@H]2C1=O,-11.4%
18,CCCCCc1cc(=O)oc2c(C(CCN3CCCC(C)C3)c3ccc4c(c3)OCO4)c(OC)cc(OC)c12 (centres undefined),-43.7%
19,COc1cc(NC(=O)c2csc(N)n2)cc(C(=O)Nc2cccc(C(F)(F)F)c2)c1,-10.1%
20,CCCCCc1cc(=O)oc2c(C(CCN3CCCC(C)C3)c3ccc(OC)cc3)c(OC)cc(OC)c12 (centres undefined),18.7%
21,N#Cc1c(N)[nH]c2ccc(Sc3ccccc3)cc12,-32.8%
22,CC1(C)Cc2c(C#N)c(SCC(=O)c3ccccc3)nc(N3CCOCC3)c2CS1,-10.1%
23,Cc1ccc(-n2ncc(-c3nnc(SCC(=O)NC4CCCC4)o3)c2N)cc1C,3.44%

row,SMILES,"DAPI nuclei signal change (viability), lower = more cytotoxic"
1,COc1ccccc1-c1cc(C(F)(F)F)nc(S(=O)(=O)CCCC(=O)N2CCCCC2C)n1 (centres undefined),-42%
2,Cc1ccc(NC(=O)c2ccc(N/N=C/c3cccc(O)c3)c([N+](=O)[O-])c2)cc1,-40.2%
3,COc1ccc(-c2sc3cc4c(cc3c2C#CC2(N)CCCCC2)OCO4)cc1,13.7%
4,CC1CC(C)CN(C(=O)c2ccc3c(c2NCCO)C(=O)c2ccccc2C3=O)C1 (centres undefined),-9.94%
5,Cc1cc(NC(=O)c2cc(-c3ccncc3)nc3c(C)cccc23)no1,-27.2%
6,O=Nc1ccc(O)c2ncccc12,-19.7%
7,COc1cccc(/C=N/Nc2cc(N3CCOCC3)ncn2)c1O,-18.8%
8,Cc1ccc(Oc2ccc(S(=O)(=O)N3CCOCC3)cc2C(N)=O)c(-n2nc3ccccc3n2)c1,-29.9%
9,CCCN1C(=O)/C(=C2\SC(N3CCCCC3)=NC2=O)c2ccccc21,-5.99%
10,COc1cccc(-c2nnc(SCC(=O)Nc3cc(C)ccc3OC)n2N)c1,-3.86%
11,C=CC[C@@H](CC(=O)N[C@H](CO)Cc1ccccc1)C(=O)N[C@H](COC(=O)[C@@H](CC=C)Cc1ccc(F)cc1)C(C)(C)C,-34.5%
12,Cc1cc(C)nc(NC(=NCCc2c[nH]c3ccccc23)NC(=O)Nc2ccc(Cl)c(Cl)c2)n1,-23.6%
13,Cc1cc(C)cc(CC(=O)N2CCC2(C)C(=O)NS(=O)(=O)c2ccc(Cl)s2)c1 (centres undefined),-25.5%
14,N=c1n(Cc2ccc(Cl)cc2)c2ccccc2n1CC(O)COc1ccccc1 (centres undefined),-21.7%
15,CCN1C(=O)[C@H]2[C@@H](c3ccc(-c4cccc(Cl)c4)cc3)N[C@@](Cc3ccccc3)(C(=O)OC)[C@H]2C1=O,-3.78%
16,CN1CCCC(n2nc(Cc3ccc(Cl)cc3)c3ccccc3c2=O)CC1 (centres undefined),-46.1%
17,CCc1nc2ccc(C(=O)NCc3ccc4c(c3)OCO4)cn2c1N(CCC(C)C)CCN(C)C,-44.7%
18,C[C@@]12C(=O)Nc3ccc(Br)cc3C(=O)N1[C@H]1c3cc(Cl)ccc3OC[C@@H]1[C@@H]2c1ccccc1,-15.8%
19,COc1ccc(-c2cc(CNc3nc(NC(C)C)nc4cc(-c5ccccc5)sc34)on2)cc1,-45.9%
20,Cc1cccc2c(C(=O)N3CCN(c4ccccc4)CC3)cc(-c3ccncc3)nc12,-25.5%
21,CCOc1c(Cl)cc(/C=C/C(=O)N(CC)CC(=O)NCc2cccs2)cc1OC,-6.1%
22,N#C/C(=C\c1cc([N+](=O)[O-])c(N2CCCCC2)cc1N1CCCCC1)c1nn(-c2ccccc2)c(N)c1C#N,-13.9%
23,O[C@H]1CN(CC2CCCCC2)[C@@H](c2ccc(Cl)cc2)C[C@@H]1n1cc(-c2ccc(F)cc2)nn1,4.35%

row,SMILES,"DAPI nuclei signal change (viability), lower = more cytotoxic"
1,O=Nc1c(-c2c(O)[nH]c3cc(Br)ccc23)[nH]c2ccccc12,-45.7%
2,COc1ccc(CC(N)c2csc(NC(=O)Nc3ccccc3-c3ccccc3)n2)cc1 (centres undefined),-40.9%
3,O=C1CN(C(=O)Cn2ncc(Cl)c(Cl)c2=O)c2ccccc2N1,-27.4%
4,Cc1cccc(N2CN(S(=O)(=O)c3cccc([N+](=O)[O-])c3)c3nc4ccccc4nc32)c1,3.45%
5,Oc1ccc(Nc2nc(N3CCCC3)c3ccccc3n2)cc1,-16.5%
6,Cc1cc(C)c2c(=N)c3ccccc3n(CCCCCCCCn3c4ccccc4c(=N)c4c(C)cc(C)nc43)c2n1,28.7%
7,CN(C)CCCN1c2ccccc2Sc2ccccc21,-38%
8,Cc1ccc(NC(=O)COC(=O)c2ccc3c(c2)NC(=O)C2CCCN32)cc1 (centres undefined),-6.44%
9,CCOc1c(Br)cc(CNC2CCCCCCC2)cc1OC,-40.6%
10,CC(=O)Oc1ccc(S(=O)(=O)c2ccc(OC(C)=O)cc2)cc1,-12.9%
11,COCCCn1c(SCC(=O)Nc2ccc(NC(=O)c3ccco3)c(OC)c2)nc2ccccc2c1=O,-15.7%
12,CCOC(=O)[C@H]1[C@H]2COc3ccc(Cl)cc3[C@@H]2N2C(=O)c3cc(OC)ccc3NC(=O)[C@@]12C,-11.5%
13,O=C1OCC2=C1C(c1ccc(F)cc1)c1cc3c(cc1N2)OCCO3 (centres undefined),-20.4%
14,CC1(C(=O)NCc2cccs2)Cc2c(-c3ccc4c(c3)OCO4)ccnc2O1 (centres undefined),-44.1%
15,COc1ccc2[nH]cc(C(=O)CCl)c2c1,-44.3%
16,C#CCN(C[C@H]1[C@H](OC(=O)NCCCCCC)[C@H](OC(=O)NCCCCCC)C[C@@H](C(=O)OC)[C@H]1C(=O)OC)S(=O)(=O)c1ccc(C)cc1,-10.5%
17,COc1cccc(-c2cc(C(=O)Nc3ccc(N(C)C(C)=O)cc3)c3cc(Br)ccc3n2)c1,-3.4%
18,CCOc1cc(CNc2ccc3c(c2)OCCO3)cc(Br)c1OCC,-15.5%
19,Cc1cccc2sc(NC(=O)C3CCCN(S(=O)(=O)c4cccc5nonc45)C3)nc12 (centres undefined),6.61%
20,COC(=O)c1c(NC(=S)NN2CCN(C)CC2)sc2c1CCC(C)C2 (centres undefined),-12.7%
21,CC1(C)CC(=O)C2=C(C1)Oc1nc3ccccc3cc1C2C(C#N)C#N (centres undefined),-41.8%
22,Cc1[nH]c2ccccc2c1/C=N/Nc1nc2ccccc2[nH]1,-17.7%
23,O=C(CC1C[C@H](C(=O)N2CCCCC2)[C@@]2(CCc3ccccc3)c3[nH]c4ccccc4c3CCN2C1=O)NCc1cccc(C(F)(F)F)c1 (some centres undefined),-20.7%

row,SMILES,"DAPI nuclei signal change (viability), lower = more cytotoxic"
1,Cc1nc2nc(C)n(CCN3CCOCC3)c(=O)c2c(-c2cccc([N+](=O)[O-])c2)c1C(=O)CCCCCCCCCCN1CCC(c2ccccc2)(c2ccccc2)CC1,-48.7%
2,Cn1cc(CN2CCC(C(=O)NC(c3ccc(F)cc3)c3ccc4ccccc4n3)CC2)c2ccccc21 (centres undefined),-32.7%
3,COc1cc2nc(NCCCN3CCN(C)CC3)n3nc(-c4ccccc4)nc3c2cc1OC,86.9%
4,Cn1c2ccccc2c2c(C(=O)N3CCN(C(=O)c4ccco4)CC3)cn(C3CCCCC3)c(=O)c21,-15.1%
5,COc1cccc(/C=N/NC(=O)c2cnccn2)c1O,-14.5%
6,CCOC(=O)c1[nH]c(C)c(C(=O)N2CCc3ccccc32)c1C,-30.9%
7,Brc1ccc(C2=Nn3c(nnc3-c3n[nH]c4c3CCC4)SC2)cc1,-29.9%
8,CCOC(=O)c1c2c(n(-c3ccc(OC)cc3)c1C)C(=O)C(=O)c1ccccc1-2,-43.7%
9,CCCCOc1ccccc1NC(=O)Cn1c(-c2nonc2N)nc2ccccc21,-18.6%
10,CCOc1cc(CNCCc2ccc(S(N)(=O)=O)cc2)ccc1OCc1ccc(Cl)cc1,-7.63%
11,CCc1nnc(NC(=O)c2cc3c(s2)CCCCC3)s1,-5.94%
12,CCOc1ccc2nc(NC(=O)Cc3cccs3)sc2c1,-13.6%
13,Oc1ccc(C[C@H]2CNC(=S)N2CC2CCCN2C[C@H](Cc2ccc(O)cc2)N2C[C@H](Cc3ccc(O)cc3)N(CC3CCCCCC3)C2=S)cc1 (some centres undefined),8.48%
14,C=C1c2nc3ccccc3n2C=C(c2ccc(C)cc2)N1c1ccccc1,-7.32%
15,O=C1C(NS(=O)(=O)c2cccs2)=C(N2CCN(c3cccc(C(F)(F)F)c3)CC2)C(=O)c2ccccc21,-16.4%
16,NC(Cc1ccc(C(F)(F)F)cc1)c1csc(Nc2ccc(C(=O)NCCCO)cn2)n1 (centres undefined),-0.771%
17,O=C1C=CC(=O)c2c(O)c(N3CCN(CCO)CC3)c(Cl)c(O)c21,-43%
18,Cc1cccc(OCc2n(CC(=O)OC3CC(C)CCC3C(C)C)c3ccccc3[n+]2C)c1 (centres undefined),-36.1%
19,COc1cc(C2=NOC(C(=O)NCc3cccs3)C2)cc(OC)c1OC (centres undefined),-22.5%
20,CCN1C(N(C)CCc2c[nH]c3ccccc23)=N[C@@H](c2cccc(C(F)(F)F)c2)C(C(=O)OC)=C1C,-47.6%
